From US20200323843A1 (IRR, Inc., priority 2010, published 2020)

Key:
[1] = test system: chronic rhinosinusitis with nasal polyposis (CRSwNP); conditions: 12 months
[2] = test system: human rhinovirus 16 (HRV-16); conditions: HRV-16 inoculation; levocetirizine 5 mg po and/or montelukast 10 mg po

## O=C(O)COCCN1CCN([C@H](c2ccccc2)c2ccc(Cl)cc2)CC1 [Levocetirizine, levocetirizine]
[1]
  QOL: mild to moderate improvement
[1]; levocetirizine 5 mg po and/or montelukast 10 mg po
  number and size of nasal polyps: mild to moderate improvement
[2]
  common cold symptoms: mild to moderate reduction
